Hit rate of the full screen: of about 310,000 compounds, about 2,200 (0.71%) showed an effect of 50% or more. Effects have a minus sign here. Some of the results follow.
The compounds below were run against human ether-à-go-go-related gene (hERG) potassium channel (human, UniProt Q12809) (assay: primary screen, population patch clamp on CHO cells stably expressing hERG).
Chain of human ether-à-go-go-related gene (hERG) potassium channel (Q12809 whole entry, looked up): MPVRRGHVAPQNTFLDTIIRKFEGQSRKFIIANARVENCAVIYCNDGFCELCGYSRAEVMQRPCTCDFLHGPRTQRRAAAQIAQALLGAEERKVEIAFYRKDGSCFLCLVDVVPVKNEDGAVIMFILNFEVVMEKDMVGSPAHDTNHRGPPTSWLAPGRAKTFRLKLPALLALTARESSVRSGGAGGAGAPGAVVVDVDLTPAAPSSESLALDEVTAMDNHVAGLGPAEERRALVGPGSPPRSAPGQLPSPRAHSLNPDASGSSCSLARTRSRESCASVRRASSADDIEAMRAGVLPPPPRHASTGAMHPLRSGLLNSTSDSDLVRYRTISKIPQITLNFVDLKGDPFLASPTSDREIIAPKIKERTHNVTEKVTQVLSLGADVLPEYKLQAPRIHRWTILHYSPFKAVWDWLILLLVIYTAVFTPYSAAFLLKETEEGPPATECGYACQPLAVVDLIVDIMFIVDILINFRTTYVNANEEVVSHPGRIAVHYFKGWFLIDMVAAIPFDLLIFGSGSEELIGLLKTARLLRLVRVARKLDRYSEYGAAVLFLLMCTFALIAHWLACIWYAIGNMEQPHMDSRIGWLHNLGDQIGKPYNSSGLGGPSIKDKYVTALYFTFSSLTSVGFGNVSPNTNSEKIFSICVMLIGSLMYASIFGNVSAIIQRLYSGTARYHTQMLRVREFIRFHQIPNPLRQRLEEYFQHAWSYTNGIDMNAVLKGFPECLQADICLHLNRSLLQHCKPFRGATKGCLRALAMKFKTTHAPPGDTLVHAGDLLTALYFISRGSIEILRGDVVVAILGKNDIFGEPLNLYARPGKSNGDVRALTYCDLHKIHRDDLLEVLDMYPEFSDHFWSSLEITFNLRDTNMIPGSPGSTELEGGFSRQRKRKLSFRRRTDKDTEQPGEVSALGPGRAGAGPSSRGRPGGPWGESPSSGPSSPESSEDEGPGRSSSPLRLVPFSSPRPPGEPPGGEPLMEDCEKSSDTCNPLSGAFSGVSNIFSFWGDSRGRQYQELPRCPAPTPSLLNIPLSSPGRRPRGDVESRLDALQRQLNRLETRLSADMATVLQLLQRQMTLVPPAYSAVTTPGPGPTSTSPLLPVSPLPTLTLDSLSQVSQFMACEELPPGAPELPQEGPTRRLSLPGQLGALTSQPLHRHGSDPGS

| SMILES | hERG current change (%, negative = inhibition) at 1uM |
| --- | --- |
| COC(=O)N/N=C\c1ccc(OC/C=C/c2ccccc2)c(OC)c1 | 8.91% |
| O=C(NCc1ccco1)c1ccc(-c2ccccc2Cl)o1 | 5.85% |
| Cc1ccc(S(=O)(=O)NCCSc2nnc(N)s2)cc1 | 3.96% |
| COc1ccc(-n2c(C)cc(-c3csc(N)n3)c2C)cc1 | -2.31% |
| CCCc1ccc2oc(C(=O)N3CCC(O)CC3)c(C)c2c1 | 12% |
| COc1ccc(C(=O)C(O)C(c2ccc(C)cc2)N2CCOCC2)cc1OC (centres unmarked) | 10.2% |
| N#C/C(=N\Nc1cccc(Cl)c1)C(=O)c1ccccc1 | 0.942% |
| O=C(NN1CCOCC1)c1cccc2ccccc12 | 9.51% |
| CCN(CC(=O)NCc1cccs1)C(=O)COc1ccc(C(C)=O)cc1 | -5.19% |
| Nc1c(N=Nc2cccc(Cl)c2)c(=O)[nH]n1-c1ccccc1 | 1.75% |
| COc1ccc(C(=O)Nc2c(N)nc(SCC(=O)N3CCCCCC3)[nH]c2=O)cc1OC | 10% |
| CSc1ccc(CN(C)C(=O)COc2ccc(C(=O)c3ccccc3)cc2)cc1 | 14.2% |
| Cn1cc(S(=O)(=O)Nc2ccc(F)c(Cl)c2)c(=O)n(C)c1=O | 9.97% |
| CC(=O)Nc1ccc(/C=N/NC(=O)c2cccs2)cc1 | 9.84% |
| CNC(=S)/N=C(\Nc1ccc(C)cc1)c1ccccc1 | 12.4% |
| CCOC(=O)Cc1nnc(NC(=O)CSc2ccc(Cl)cc2)s1 | 9.14% |
| Cc1cccc(NC(=O)CN2CCN(CC(=O)Nc3ccc(-c4ccccc4)cc3)CC2)c1C | 7.53% |
| COC(=O)c1c(C(=O)c2ccc(Br)cc2)n(C)c2ccccc12 | 2.31% |
| COC(=O)c1cc(C(=O)NCC2CCCCC2)cc([N+](=O)[O-])c1 | 6.32% |

| SMILES | hERG current change (%, negative = inhibition) at 1uM |
| --- | --- |
| COc1cc2[nH]c(=O)n(CCC(=O)N3CC=C(c4ccccc4)CC3)c(=O)c2cc1OC | 0.309% |
| COc1ccc(OC)c(C(C)NS(=O)(=O)c2cccs2)c1 (centres unmarked) | -2.19% |
| COc1ccc(NC(=O)N2CCCc3cccc(C)c32)cc1 | 1.06% |
| CC(C)CC(=O)N/C(N)=N/c1nc2ccccc2s1 | 13.4% |
| O=C(Nc1nnc(CCc2ccccc2)s1)c1ccccc1 | 11.9% |
| Cc1ccc(C2NC(=O)c3c(sc(C)c3C)N2)c(O)c1 (centres unmarked) | 3.84% |
| CC(C)[C@H](NC(=O)OC(C)(C)C)C(=O)N/N=C/c1ccc2nccnc2c1 | 5.51% |
| CCOc1ccc(/C=C2\SC(=S)N(CCCC(=O)NCCCN3CCOCC3)C2=O)cc1 | 14.5% |
| O=C(COC(=O)c1oc2ccccc2c1COc1ccccc1)NCCN1C(=O)CSC1=O | -8.43% |
| O=C1CSC(c2cccc([N+](=O)[O-])c2)N1c1ccccc1F (centres unmarked) | 1.45% |
| O=S(=O)(NCC1CCCO1)c1cc(Br)c(Br)s1 (centres unmarked) | 0.898% |
| CC1(C)Cc2c(c(N3CCOCC3)nc3sc(C(N)=O)c(N)c23)CO1 | 2.15% |
| COc1ccc(C2C=C(c3ccc(F)cc3)NC(=S)N2)cc1OC (centres unmarked) | 5.17% |
| COCCNC(=O)c1c(CSc2ccccc2)noc1C(=O)NCc1ccccc1 | 11.3% |
| O=c1c2ccccc2c(C=Nc2cccc(O)c2)c(O)n1-c1ccc2c(c1)OCO2 | 14.1% |
| COc1cc(/C=C/C(=O)OC(C)C(=O)c2ccccc2)cc(OC)c1OC (centres unmarked) | 3.82% |
| COc1ccc(N(CC(=O)NCCC2=CCCCC2)S(C)(=O)=O)cc1 | -7.54% |
| CSc1ccccc1C(=O)N1CCN(c2cccc(Cl)c2)CC1 | 12.9% |
| COc1cc(C(=O)NCc2ccc(S(N)(=O)=O)cc2)ccc1OCC(=O)Nc1cccc(C(F)(F)F)c1 | 8.44% |

| SMILES | hERG current change (%, negative = inhibition) at 1uM |
| --- | --- |
| CCOC(=O)C1=C(C)NC(C)=C(C(=O)OCC)C1C(=O)OCC(=O)NC | 5.88% |
| COc1cc([N+](=O)[O-])c(OC)cc1SCc1n[nH]c(=S)n1-c1ccc(F)cc1 | 7.12% |
| CCN(CC)CCOC(=O)C(c1ccccc1)c1ccccc1.Cl | -34.9% |
| COc1ccc(CCN(Cc2cc3cccc(C)c3[nH]c2=O)C(=O)NC2CCCCC2)cc1OC | -7.49% |
| O=C(/C=C/c1ccc(Cl)cc1)N(Cc1cccs1)C1CCS(=O)(=O)C1 (centres unmarked) | -3.56% |
| CCCCn1c(=O)c(-c2ccccc2)c(O)c2ccccc21 | 16.3% |
| CCCCn1nnnc1SCC(=O)Nc1sc2c(c1C#N)CCCC2 | 8.26% |
| N#Cc1cc(-c2ccc(Cl)cc2)cnc1Sc1ccc(F)cc1 | 7.98% |
| CN(C(=O)c1ccc(NC(=O)Cc2ccc(NC(=O)C3CCN(C(=O)C4CCCCC4)CC3)cc2)cc1)C1CC1 | 16.9% |
| CC1Cc2nc(SCC(=O)N3CCN(c4ccccc4)CC3)n(CCc3ccccc3)c(=O)c2S1 (centres unmarked) | 2.07% |
| Cc1ccc(Cl)cc1NC(C#N)c1ccccc1 (centres unmarked) | 9.71% |
| O=C(NCCN1CCN(C(=O)c2cccc(Br)c2)CC1)C(=O)Nc1ccc(Br)cc1 | -3.77% |
| Cc1ccc(O)c(C(=O)CC(=O)c2ccc(C(C)(C)C)cc2)c1 | 12.6% |
| CN(C)CCOc1ccc2c(c1)Sc1ccccc1CC2=O.Cl | -18.3% |
| CC1CCN(C(c2cc3cc4c(cc3[nH]c2=O)OCO4)c2nnnn2CC2CCCO2)CC1 (centres unmarked) | -3.76% |
| CCSc1nnc(NC(=O)C2CC=CCC2C(=O)O)s1 (centres unmarked) | 6.79% |
| CC1(C)CC(=O)C2=C(C1)OC(N)=C(C#N)C2c1cn(-c2ccccc2)nc1-c1ccc(F)cc1 (centres unmarked) | -4.2% |
| CCn1c(SCC(=O)N2CCN(c3cccc(Cl)c3)CC2)nc2ccccc2c1=O | 3.76% |
